Laboratory results from the supplement of paper PMC3334620.
Whole data set: some 33,000 sequences, median “E-score (-0.5 to 0.5)” near -0.017, cut for the highest 2% near 0.3. The list shows a part of the results.

molecular target: T1, Sut1 (UniProt P53032); experiment: PBM E-score (8-mer binding enrichment) (E-score (-0.5 to 0.5)); higher = stronger / more preferred TF binding; most listed sequences are background and not binding sites; settings: protein concentration: 200 nM; construct: GST-full length
T1 sequence: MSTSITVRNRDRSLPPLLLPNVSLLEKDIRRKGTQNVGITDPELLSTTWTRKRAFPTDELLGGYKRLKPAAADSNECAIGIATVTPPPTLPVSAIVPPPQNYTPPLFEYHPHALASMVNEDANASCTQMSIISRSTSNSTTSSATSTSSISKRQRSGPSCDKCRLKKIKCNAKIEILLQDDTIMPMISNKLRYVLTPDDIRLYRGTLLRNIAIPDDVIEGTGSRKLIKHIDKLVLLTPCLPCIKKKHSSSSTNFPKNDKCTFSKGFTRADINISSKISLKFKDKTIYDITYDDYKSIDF
In short: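 Universal all-10-mer Agilent arrays, fresh or stripped once, were converted to double-stranded form by primer extension. GST-tagged yeast transcription factors from PURExpress in vitro transcription/translation, full-length or DNA-binding domain only, were applied at about 100-200 nM and detected with fluorescent anti-GST. After masliner normalisation, the Universal PBM Analysis Suite scored each ungapped eight-base word together with its reverse complement by E-score.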

| Sequence | PBM E-score |
| --- | --- |
| GAAAGCTC | -0.0607 |
| CAGCCAGA | -0.0176 |
| AACATGCT | 0.0528 |
| GTAACGAA | -0.00198 |
| ACCGATTG | 0.147 |
| TAGACAGA | 0.134 |
| CGGGGCCC | -0.106 |
| AATTGTCA | 0.121 |
| CAATATTG | 0.051 |
| AGATTCAA | 0.219 |
| CCCATACG | -0.204 |
| ACAGTTGG | -0.132 |
| AAGCATAG | -0.196 |
| AGAGTTAC | -0.117 |
| CATTATAA | 0.126 |
| GCCTAGTA | -0.0758 |
| GATGGAAC | -0.0852 |
| AATGTTTG | 0.175 |
| AATGCTCT | 0.0869 |
| CCCTCCTA | -0.207 |
| GCAAATAC | 0.0477 |
| GGGGTCGA | -0.135 |
| ATTATCGA | 0.021 |
| CATCATAC | 0.253 |
| GACTGAGC | -0.342 |

| Sequence | PBM E-score |
| --- | --- |
| ACGAAGCA | 0.0787 |
| ATATCGAG | 0.0296 |
| TCAAGCGA | -0.113 |
| CGCGACGC | -0.169 |
| CGTACTCA | 0.0162 |
| CCGGCGCA | 0.132 |
| CAAGACAC | -0.00016 |
| GATTACAA | 0.156 |
| GGGACAGA | -0.387 |
| ATTGGTCG | 0.0598 |
| AGCCGGTA | -0.0773 |
| CGCTGTGA | -0.225 |
| CCCCCCAG | -0.451 |
| GGCTTGAC | -0.0111 |
| ACAATGAA | 0.13 |
| ATGTGTAG | 0.0251 |
| GCGATCGC | 0.0478 |
| GGAGGTAA | 0.0337 |
| CTCGTGTA | -0.176 |
| AGAGCTCA | -0.109 |
| ACCTCATA | -0.0352 |
| CCTCGCGC | -0.262 |
| AGTGCAAT | -0.0563 |
| ATCTATGA | 0.118 |
| AGGCCCCG | -0.292 |

| Sequence | PBM E-score |
| --- | --- |
| ATCTAGAG | -0.0117 |
| CGATTTGC | 0.0539 |
| CCTAGACA | -0.165 |
| ATACCTGA | -0.0244 |
| CTCATAAA | 0.117 |
| CGGTCCTC | -0.0479 |
| CAGGTGAC | -0.157 |
| GGTCATGA | -0.112 |
| CGAAACTA | 0.121 |
| ACATCCCG | 0.0895 |
| CTTGCGTA | 0.106 |
| AGACGCGA | 0.0113 |
| AAGTACTG | -0.114 |
| GTGCCCGA | -0.183 |
| ACACGCCG | -0.0829 |
| AAACACAA | 0.197 |
| AGCAAGAC | -0.149 |
| AGAGTGAG | 0.0836 |
| CACCGACA | -0.0992 |
| AAAAGTAG | 0.0841 |
| AACGGGTA | 0.0141 |
| CGGAGGAC | 0.102 |
| ACTTGTCA | 0.0978 |
| CGTCCAAA | 0.144 |
| AACTTGTG | 0.0746 |

| Sequence | PBM E-score |
| --- | --- |
| AGAATCTA | 0.0902 |
| ATGGGAAG | -0.0793 |
| AAACGATA | 0.027 |
| ATTTTAGG | 0.113 |
| CACACCTC | -0.169 |
| CCAATAGC | -0.0939 |
| CTGGACAG | -0.205 |
| ACGTTCCC | -0.164 |
| ATTAATTG | 0.187 |
| ACAGCATC | -0.0972 |
| AATGAGGA | -0.0127 |
| ATAGCGTA | -0.0334 |
| CTTGCAAG | 0.0222 |
| CTGACGAC | -0.199 |
| TACCCTGA | -0.244 |
| ATATGTTA | 0.207 |
| ATTGTAAC | 0.0804 |
| ACATGACG | 0.00405 |
| CCACGAAC | 0.093 |
| GCAGGTCC | 0.0446 |
| CCAGGACG | -0.223 |
| CACCACTA | 0.116 |
| GTAGATAC | 0.0115 |
| CAGGACCC | -0.231 |
| CGCAGTGA | -0.0592 |

| Sequence | PBM E-score |
| --- | --- |
| TCAAAGGA | -0.0285 |
| ATGTTATG | 0.211 |
| ACCACAGT | -0.0605 |
| CGCAATGC | -0.19 |
| CTTAGTTC | 0.0859 |
| ACCGTTCT | -0.0194 |
| GAATCTAC | -0.104 |
| GAGTGCAA | 0.144 |
| AAGACGGC | -0.0607 |
| CCCCTAGG | -0.174 |
| CGAGAACC | -0.0514 |
| GACAGTAC | 0.0792 |
| GAGAGCAC | -0.0549 |
| AAGCTGAG | -0.0853 |
| CCAGACTC | -0.166 |
| TATAGTCA | 0.135 |
| GTATGGTA | -0.0717 |
| CTAAGAGA | 0.046 |
| ACTAAAAG | 0.214 |
| GACACGCA | -0.0106 |
| GCTAGATA | -0.0727 |
| AGATCGCG | -0.0343 |
| GCAGAAAC | -0.0505 |
| AAGTTACG | 0.179 |
| GAGACCCC | -0.146 |

| Sequence | PBM E-score |
| --- | --- |
| ATTTCCTG | 0.169 |
| GGACAGCA | -0.0931 |
| CTTTTGCC | 0.0834 |
| CGAATGAA | 0.0181 |
| AGGCAAGC | -0.135 |
| ATATACTG | 0.179 |
| ATTTTTTC | 0.262 |
| CATGATAC | 0.119 |
| CGTCCCTA | -0.135 |
| CTGGCTGC | -0.214 |
| CGAGATTC | 0.0663 |
| CCTGGTCG | -0.228 |
| CCAAGTAG | -0.189 |
| AAAGTGTC | 0.123 |
| ACTATGGA | 0.0185 |
| GATAAAAA | 0.263 |
| CCCGTCGA | -0.208 |
| ACTGCTAG | -0.173 |
| AGGGGGGG | -0.464 |
| AGACTTTG | -0.115 |
| CCAAGGAA | -0.0992 |
| AATTTTGA | 0.206 |
| GATCAGTA | 0.109 |
| ACGCCGGA | 0.239 |
| ACGGAATA | 0.202 |

| Sequence | PBM E-score |
| --- | --- |
| AAACACCC | 0.063 |
| CCCGTCGC | -0.153 |
| AGAGCTTG | -0.0909 |
| AGCCCGTA | -0.126 |
| ACGAAGAA | 0.201 |
| ATTCACAG | -0.0815 |
| ATGAGAGG | -0.0408 |
| GCCACTCC | 0.0702 |
| AACGTTTA | -0.0621 |
| GTACGATA | -0.0185 |
| AAACATGT | 0.14 |
| CGTCATAA | 0.134 |
| CCAACTGA | -0.08 |
| GTTGCACA | -0.176 |
| AAATCCAC | 0.0815 |
| CAAAATTA | 0.241 |
| CTGCTTCA | -0.299 |
| CCCCAAGG | -0.296 |
| AACCGGGT | -0.182 |
| ACACAGAA | 0.0759 |
| CAGGTCAG | -0.204 |
| GCAGGTCA | -0.167 |
